According to the supplement of paper PMC11383711:
The other results are listed elsewhere or left out. Binding of human antibodies (heavy:light variable regions, tested as scFv in one mRNA-display pool) to influenza hemagglutinin, with or without the stem antibody CR9114 bound first. Score = (mean enrichment − median) / interquartile range of that screen; higher = more enriched, 0 = typical non-binder. Active = above the paper's cut-off per screen: stems 28; unblocked H1 Solomon Islands 5, H1 Michigan 3, H3 5, H5 19, H7 2.85, both B 5; blocked 9, 7, H5 10, H7 10, B Phuket 10, B Lee 11.5. Scores are scaled within each screen and are no affinities; replicates correlate at about 0.6 to 0.9, and antibodies rare in the pool are noisier.

B1: C8-A06 (protein)
chain 1: VQLVQSGVEVKKPGASVKVSCKTSGYTFTSFDIDWVRQAPGQGLEWMGWMNPNSGTTGYAQKFQGRVTMTRNTSISTAYMELSSLRSDDTAVYYCARGKSTITTYWFDPWGQGTLVTVSS
chain 2: DIVMTQSPDSLAVSLGERATINCKSSQTVLSNSNNENYLTWYQQKPGQPPRLLIYWASTRESGVPDRFTGSGSGTDFTLTISSLQAEDVAVYYCQQYYSNPYTFGQGTKVEIK
B2: R95-1E04 (protein)
chain 1: EVQLVESGGGLVQPGRSLRLSCAASGFSFVDYDMHWVRQAPGKGLEWVSSIRWNSGGIAYADSVKGRFTISRDNAKNSLYLQMNSLRAEDTAFYYCARTEAATVFGDHYSYYYYMDVWGKGTTVTVSS
chain 2: DIVMTQSPDSLAVSLGERATINCKSSQSLFYNSNNKNYFAWYQQKPGQPPKLLIYWASTRESGVPDRFSGSGSGTDFTLTISSLQAEDVAVYYCQQYYTTPLTFGGGTKVEIK
B3: SFV015-1F04 (protein)
chain 1: QVQLVESGGGVVQPGRSLRLSCTASGIIFSNYAMHWVRQAPGKGLEWVAVISYDGYIPYYTDSVQGRFIISRDNSKNTLYLEMNSLRAEDTAFYFCARDKYRDGDRLDYYYYMDLWGQGTTVTVSS
chain 2: EIVLTQSPVTLSLSPGERATLSCRASQSVSNYLAWYQQTPGQPPRLLIYDASHRATGIPTRFSGAVSGTDFTLTISSLEPEDFAVYYCQLRSNWPPLFTFGPGTKVDIK
B4: C1-2-2D06 (protein)
chain 1: VQLQESGPGLVKPSETLSLTCTVSDYFINNGYYWAWIRQAPGKGLEWIGSIYHSGSTFYNPSLKSRVTISVDTSENQISLRLRSVTAADSAVYYCARQSIYTGNHFPKFDPWGQGTLVTVSS
chain 2: AIQLTQSPSSLSASVGDRVTITCRASQGISSALAWYQQKPGKTPKLLIYDTSNLESGVPSRFSGSGSGTDFTLTISSLQPEDFATYYCQQFNSYPPEVTFGGGTKVEIK
B5: 017-10-5E01 (protein)
chain 1: QVQLQESGPGLVKPSQTLSLTCNVSGISMSSPGSFWSWLRQRPGKGLEWLGYVSHSGHTKYTPSLKSRLSISLDVSQDQFSLRLNFVTAADTAVYYCAREYQEQIGRAFDFWGQGTLVTVSS
chain 2: DIQMTQSPSSLSASVGDRVTITCRASQRINTFLNWYQLKPGKAPKLLIYAASHLQSGVPSRFSATGFGTDFTLSISSLQPEDLATYYCQPTFTPSYTFGQGTKVEIK
B6: 045-09-1G05 (protein)
chain 1: QVQLQESGPGLVKPSQTLSLTCAVSGDSISSGIYFWSWIRQPPGQGLEWIGRVFKTGTTDYNTSLKSRVTISVDTSKNQFSLKVSSATAADTALYYCARETPADRPYCGSGSCSFDSWGQGILVTVSS
chain 2: DIQMTQSPSSLSASVGDRVTITCRASQNINNNLNWYQQKSGKAPKFLIYAASHLQDGVPSRFSGGGSGTDFTLTIASLQPEDFATYYCQQSFTTLGSTFGQGTKVEIK

What was measured:
Experiment in all cases: mRNA display binding score; higher = more enriched on the antigen
[1] = biological target: Influenza A H1N1 A/Michigan/45/2015 hemagglutinin ectodomain
Description: (§1)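 A pool of natively paired antibodies, displayed as scFv on mRNA, was selected once on antigen-coated beads and sequenced before and after; two replicates.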

[2] = biological target: Influenza A H1N1 A/Solomon Islands/3/2006 hemagglutinin ectodomain
Description: as §1

[3] = biological target: Influenza A H3N2 A/Singapore/INFIMH-16-0019/2016 hemagglutinin ectodomain; settings: antigen blocked with: nothing
Description: as §1

[4] = biological target: Influenza A H5N1 A/Qinghai/1A/2005 hemagglutinin ectodomain
Description: as §1

[5] = biological target: Influenza A H7N9 A/Shanghai/2/2013 hemagglutinin ectodomain
Description: as §1

[6] = biological target: Influenza B/Lee/1940 hemagglutinin ectodomain
Description: as §1

[7] = biological target: Influenza B/Phuket/3073/2013 hemagglutinin ectodomain
Description: as §1

[8] = antigen blocked with: 2 µM CR9114 IgG

Binder	mRNA display binding score [1, 8]	mRNA display binding score ([1]; antigen blocked with: nothing)	mRNA display binding score [2, 8]	mRNA display binding score ([2]; antigen blocked with: nothing)	mRNA display binding score [3]	mRNA display binding score [4, 8]	mRNA display binding score ([4]; antigen blocked with: nothing)	mRNA display binding score [5, 8]	mRNA display binding score ([5]; antigen blocked with: nothing)	mRNA display binding score [6, 8]	mRNA display binding score ([6]; antigen blocked with: nothing)	mRNA display binding score [7, 8]	mRNA display binding score ([7]; antigen blocked with: nothing)
B1	inactive: -0.135	inactive: 0.271	inactive: -0.317	inactive: 0.137	inactive: 0.309	inactive: -0.312	inactive: -0.0913	inactive: -0.747	inactive: 0.334	inactive: -0.383	inactive: -0.173	inactive: -0.256	inactive: -0.0903
B2	inactive: -0.274	inactive: 0.461	inactive: -0.0397	inactive: -0.0164	inactive: 2.6e-05	inactive: 0.437	inactive: -0.113	inactive: -0.47	inactive: 0.331	inactive: -0.643	inactive: -0.146	inactive: 0.154	inactive: -0.288
B3	inactive: -0.123	inactive: 2.07	inactive: 0.336	inactive: 2.55	inactive: 1.2	inactive: 0.3	inactive: 0.883	inactive: 1.16	inactive: 2.13	inactive: -0.349	inactive: -0.00628	inactive: 0.344	inactive: 0.713
B4	inactive: -0.214	inactive: -0.465	inactive: -0.391	inactive: -0.539	inactive: -0.0641	inactive: -0.553	inactive: -0.341	inactive: -0.0286	inactive: -0.418	inactive: -0.403	inactive: -0.293	inactive: -0.142	inactive: -0.359
B5	active: 14.8	active: 3.93	inactive: 1.9	inactive: 2.87	active: 30.5	inactive: 0.331	inactive: 0.933	active: 10.8	active: 2.86	inactive: -0.557	inactive: 0.277	inactive: 0.76	inactive: 0.335
B6	active: 51.2	active: 3.41	active: 9.66	inactive: 4.99	inactive: -0.143	inactive: 6.55	inactive: 9.69	active: 26.8	inactive: 0.148	inactive: -0.349	inactive: 1.35	inactive: -0.348	inactive: -0.229
